Measured values as given in the supplement of paper PMC11383711.
The list shows a part of the results. Binding of human antibodies (heavy:light variable regions, tested as scFv in one mRNA-display pool) to influenza hemagglutinin, with or without the stem antibody CR9114 bound first. Score = (mean enrichment − median) / interquartile range of that screen; higher = more enriched, 0 = typical non-binder. Active = above the paper's cut-off per screen: stems 28; unblocked H1 Solomon Islands 5, H1 Michigan 3, H3 5, H5 19, H7 2.85, both B 5; blocked 9, 7, H5 10, H7 10, B Phuket 10, B Lee 11.5. Scores are scaled within each screen and are no affinities; replicates correlate at about 0.6 to 0.9, and antibodies rare in the pool are noisier.

B1: AG13-3G01 (protein)
chain 1: VQLVQSGPEVKKPGASVKVSCKASGYTFTSNHIHWLRQAPGQGIEWMGWINPDTGDTEYSRKFQGRVTMTRDTSMTSAYMDLNWLGSADTGVYYCARDRENRLDIVTVPPDNWFDSWGQGTLVTVSS
chain 2: EIVMTQSPATLSASPGGRVTLSCRASQSVSNNLVWYQQKPGQAPRLLIYDASTRATGVPGRFSGSGSGTEFTLTISSLQSEDFAIYYCQQYQNWPTFGQGTKVEIK
B2: 220-14-IgG-1A03 (protein)
chain 1: EVQLVESGGGLVQPGGSLRLSCAASGFTFSNYWMNWVRQGPGKGLVWVARINSDGSRTIYADSVKGRFTISRDNPKNTLYLEMNSLRAEDTAVYFCAREPYFPLYFDYWGQGALVTVSS
chain 2: DIVMTQSPLSLPVTPGEPASISCRSSQSLLHRNEDNYLNWYLQKPGQSPQILIYFGSNRASGVPDRFSGSGSGTDFTLKISRVEAEDVGVYYCMQALQTPFTFGQGTKVEIK
B3: 220-14-IgG-1E01 (protein)
chain 1: EVQLVESGGGLVQPGGSLRLSCAASGFTSSSYEMNWVRQAPGKGLEWISFISKSESIISYADSVKGRFTISRDSAKNSLYLQLTSLRAEDTAVYYCARLGLLGFGELGPPHWYYAMDVWGQGTTVTVSS
chain 2: EIVLTQSPGTLSLSPGERATLSCRASQSVSSTYLVWYRQRPGQAPRLLIYGASKRATGIPDRISGSGSGTDFTLTISRLEPEDFAVYYCQVYGSSPLFAFGPGTK
B4: antibody 2G04 (protein)
chain 1: VQLVESGGGLVQPGRSLRLSCAASGFTFDDYAMHWVRQAPGKGLEWVSGINWNSGVVGYADSVKGRFTISRDNAKNSLYLQMTSLRAEDTALYYCAKDMHLSAMDILRDAFNMWGQGTMVTVSS
chain 2: DIQMTQSPSTLSASLRDRVTITCRASQSISRWLAWYQQKPGKAPKLLIYAASTLESGVPPRFSGSGSGTEFTLTISSLQPDDFATYYCQQYNSDVTFGQGTRLEIK
B5: C1-2-C06 (protein)
chain 1: VQLLESGGGLVQPGGSLRLSCVASGFSFSKYGMSWVRQVPGKGLEGVASVSVGGGYSHYSDYVAGRFVISKEVSSNTLHLQMSRLRAEDTAVYYCVKNRGWQLGPDAFDSWGQGTMVTVSS
chain 2: AIQLTQSPSSLSASLGDRVVITCRASQGVNRDLAWYQQKPGEVPSLLMSSVSLMKSGVPSRFSGSGSGTDFTLTINGLQSEDFAIYYCQQFNSYPITFGQGTRLEIK
B6: C3-2-3F02 (protein)
chain 1: VQLVESGGGVVRPGGSLRLSCEASGFTFRVYDMHWVRQAPGKGLEWVAFIRRDGSNEYVIDSVKGRFTISRDNSKNTVYLRMNSLRPEDTALYYCAKLPQRLDEGDYYFDMEVWGQGTTVTVSS
chain 2: DIQMTQSPASLSAAVGDRVTITCRASQGVGNDLGWYQQKPGKAPKRLIYAASSLEDGVPSRFSGSGSGTDFTLTISSLQPEDFATYYCLQHSTYPLTFGGGTKVEIK
B7: K77-1C04 (protein)
chain 1: QVQLQESGPGLVKPSETLSLTCTVSGGSISSSRYYWGWIRQPPGKGLECIGTIYYTGNTYYNPSLKSRVTISVDTSKNQFSLKLRSVTAADTAVYYCAREGQWLDPNYFDYWGQGALVTVSS
chain 2: DIVMTQSPDSLAVSLGERATINCKSSQSVLFRSNNKNCVAWYQQKPGQPPKLLIYWASTRESGVPDRFSGSGSGTDFTLTINSLQAEDVAVYYCQQYYSTPQTFGQGTKVEIK

target: Influenza A H1N1 A/Michigan/45/2015 hemagglutinin ectodomain; test: mRNA display binding score; higher = more enriched on the antigen; settings: antigen blocked with: 2 µM CR9114 IgG
Experimental: (§1)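 A pool of natively paired antibodies, displayed as scFv on mRNA, was selected once on antigen-coated beads and sequenced before and after; two replicates.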

Binder	mRNA display binding score
B1	inactive: 4.59
B2	active: 8.07
B3	inactive: 0.859
B4	inactive: 0.322
B5	inactive: 0.282
B6	inactive: -0.165
B7	inactive: 0.399

same assay, conditions: antigen blocked with: nothing

Binder	mRNA display binding score
B1	inactive: -0.087
B2	inactive: 1.51
B3	inactive: 1.7
B4	inactive: 1.23
B5	inactive: -0.504
B6	inactive: -0.561
B7	inactive: 0.397

target: Influenza A H1N1 A/Solomon Islands/3/2006 hemagglutinin ectodomain; test: as above; settings: antigen blocked with: 2 µM CR9114 IgG
Experimental: as §1

Binder	mRNA display binding score
B1	inactive: 0.983
B2	active: 215
B3	inactive: 1.28
B4	inactive: 0.706
B5	active: 48.3
B6	inactive: -0.442
B7	inactive: -0.0981

same assay, conditions: antigen blocked with: nothing

Binder	mRNA display binding score
B1	inactive: -0.0491
B2	active: 288
B3	inactive: 1.38
B4	inactive: 0.561
B5	active: 47.6
B6	inactive: -0.494
B7	inactive: 0.237

target: Influenza A H3N2 A/Singapore/INFIMH-16-0019/2016 hemagglutinin ectodomain; test: as above; settings: antigen blocked with: nothing
Experimental: as §1

Binder	mRNA display binding score
B1	inactive: -0.186
B2	inactive: 0.394
B3	inactive: 1.75
B4	inactive: 0.809
B5	inactive: -0.135
B6	inactive: -0.404
B7	inactive: 1.12

target: Influenza A H5N1 A/Qinghai/1A/2005 hemagglutinin ectodomain; test: as above; settings: antigen blocked with: 2 µM CR9114 IgG
Experimental: as §1

Binder	mRNA display binding score
B1	active: 153
B2	inactive: 2.69
B3	inactive: 0.452
B4	inactive: 0.888
B5	inactive: 0.00872
B6	inactive: -0.524
B7	inactive: 0.254

same assay, conditions: antigen blocked with: nothing

Binder	mRNA display binding score
B1	active: 74
B2	inactive: 1.56
B3	inactive: 0.636
B4	inactive: 0.493
B5	inactive: 0.369
B6	inactive: -0.443
B7	inactive: 0.169

target: Influenza A H7N9 A/Shanghai/2/2013 hemagglutinin ectodomain; test: as above; settings: antigen blocked with: 2 µM CR9114 IgG
Experimental: as §1

Binder	mRNA display binding score
B1	inactive: 8.11
B2	inactive: 3.6
B3	inactive: 0.504
B4	inactive: 0.177
B5	inactive: -0.148
B6	inactive: -0.208
B7	inactive: 0.012

same assay, conditions: antigen blocked with: nothing

Binder	mRNA display binding score
B1	inactive: 0.00801
B2	inactive: 0.734
B3	inactive: 1.94
B4	inactive: 1.84
B5	inactive: -0.184
B6	inactive: -0.522
B7	inactive: 0.527

target: Influenza B/Lee/1940 hemagglutinin ectodomain; test: as above; settings: antigen blocked with: 2 µM CR9114 IgG
Experimental: as §1

Binder	mRNA display binding score
B1	inactive: 2.56
B2	inactive: -0.541
B3	inactive: -1.23
B4	inactive: 0.179
B5	inactive: -0.401
B6	inactive: 0.631
B7	inactive: -0.134

same assay, conditions: antigen blocked with: nothing

Binder	mRNA display binding score
B1	inactive: 2.62
B2	inactive: 0.263
B3	inactive: -0.04
B4	inactive: 1.38
B5	inactive: 0.0124
B6	inactive: -0.373
B7	inactive: -0.0885

target: Influenza B/Phuket/3073/2013 hemagglutinin ectodomain; test: as above; settings: antigen blocked with: 2 µM CR9114 IgG
Experimental: as §1

Binder	mRNA display binding score
B1	active: 272
B2	inactive: 2.36
B3	inactive: 1.12
B4	inactive: 0.512
B5	inactive: 0.509
B6	inactive: -0.273
B7	inactive: 0.135

same assay, conditions: antigen blocked with: nothing

Binder	mRNA display binding score
B1	active: 119
B2	inactive: 2.18
B3	inactive: 0.328
B4	inactive: 0.316
B5	inactive: 0.773
B6	inactive: -0.358
B7	inactive: 0.0626
